# The list shows a part of the results.
# B1: OGAN (protein)
# chain: MVQKESQATLEERESELSSNPAASAGASLEPPAAPAPGEDNPAGAGGAAVAGAAGGARRFLCGVVEGFYGRPWVMEQRKELFRRLQKWELNTYLYAPKDDYKHRMFWREMYSVEEAEQLMTLISAAREYEIEFIYAISPGLDITFSNPKEVSTLKRKLDQVSQFGCRSFALLFNDIDHNMCAADKEVFSSFAHAQVSITNEIYQYLGEPETFLFCPTEYCGTFCYPNVSQSPYLRTVGEKLLPGIEVLWTGPKVVSKEIPVESIEEVSKIIKRAPVIWDNIHANDYDQKRLFLGPYKGRSTELIPRLKGVLTNPNCEFEANYVAIHTLATWYKSNMNGVRKDVVMTDSEDSTVSIQIKLENEGSDEDIETDVLYSPQMALKLALTEWLQEFGVPHQY
# Experiments:
# Assay in all cases: glycan array binding signal (z-score within array); higher = stronger binding
# Conditions in all cases: glycan notation: IUPAC condensed, linker removed
# [1] = target: Neu5Ac(a2-3)Gal(b1-3)GlcNAc(b1-2)Man
# In short: (§1)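 From the Consortium for Functional Glycomics database, 3228 arrays were curated, keeping only those whose protein sequence was available. Binding is given as a within-array Z-score averaged across arrays sharing a protein sequence and across linkers. Negative Z-scores can be read as non-binding.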
# [2] = target: Neu5Ac(a2-3)Gal(b1-3)GlcNAc(b1-2)Man(a1-3)[GlcNAc(b1-4)][Neu5Ac(a2-3)Gal(b1-3)GlcNAc(b1-2)Man(a1-6)]Man(b1-4)GlcNAc(b1-4)GlcNAc
# In short: as §1
# [3] = target: Neu5Ac(a2-3)Gal(b1-3)GlcNAc(b1-2)Man(a1-3)[Neu5Ac(a2-3)Gal(b1-3)GlcNAc(b1-2)Man(a1-6)]Man(b1-4)GlcNAc(b1-4)GlcNAc
# In short: as §1
# [4] = target: Neu5Ac(a2-3)Gal(b1-3)GlcNAc(b1-2)[Neu5Ac(a2-3)Gal(b1-3)GlcNAc(b1-4)]Man(a1-6)[Neu5Ac(a2-3)Gal(b1-3)GlcNAc(b1-2)Man(a1-3)]Man(b1-4)GlcNAc(b1-4)GlcNAc
# In short: as §1
# [5] = target: Neu5Ac(a2-3)Gal(b1-3)GlcNAc(b1-3)Gal(b1-3)GlcNAc
# In short: as §1
# [6] = target: Neu5Ac(a2-3)Gal(b1-3)GlcNAc(b1-3)Gal(b1-4)GlcNAc
# In short: as §1
# [7] = target: Neu5Ac(a2-3)Gal(b1-3)GlcNAc(b1-3)GalNAc
# In short: as §1
# [8] = target: Neu5Ac(a2-3)Gal(b1-3)GlcNAc(b1-6)GalNAc
# In short: as §1
# [9] = target: Neu5Ac(a2-3)Gal(b1-3)GlcNAc6S
# In short: as §1
# [10] = target: Neu5Ac(a2-3)Gal(b1-3)[Fuc(a1-4)]GlcNAc
# In short: as §1
# [11] = target: Neu5Ac(a2-3)Gal(b1-3)[Fuc(a1-4)]GlcNAc(b1-3)Gal(b1-3)[Fuc(a1-4)]GlcNAc
# In short: as §1
# [12] = target: Neu5Ac(a2-3)Gal(b1-3)[Fuc(a1-4)]GlcNAc(b1-3)Gal(b1-4)[Fuc(a1-3)]GlcNAc
# In short: as §1
# [13] = target: Neu5Ac(a2-3)Gal(b1-3)[GlcNAc(b1-6)]GalNAc
# In short: as §1
# [14] = target: Neu5Ac(a2-3)Gal(b1-3)[Neu5Ac(a2-6)]GalNAc
# In short: as §1
# [15] = target: Neu5Ac(a2-3)Gal(b1-3)[Neu5Ac(a2-6)]GlcNAc(b1-3)[Fuc(a1-3)[Gal(b1-4)]GlcNAc(b1-6)]Gal(b1-4)Glc
# In short: as §1
# [16] = target: Neu5Ac(a2-3)Gal(b1-3)]Neu5Ac(a2-3)Gal(b1-4)]GlcNAc
# In short: as §1
# Neu5Ac(a2-3)Gal(b1-4)Glc = target: Neu5Ac(a2-3)Gal(b1-4)Glc
# In short: as §1
# [17] = target: Neu5Ac(a2-3)Gal(b1-4)GlcNAc
# In short: as §1
# [18] = target: Neu5Ac(a2-3)Gal(b1-4)GlcNAc(b1-2)Man
# In short: as §1
# [19] = target: Neu5Ac(a2-3)Gal(b1-4)GlcNAc(b1-2)Man(a1-3)[GlcNAc(b1-4)][Neu5Ac(a2-3)Gal(b1-4)GlcNAc(b1-2)Man(a1-6)]Man(b1-4)GlcNAc(b1-4)GlcNAc
# In short: as §1
# [20] = target: Neu5Ac(a2-3)Gal(b1-4)GlcNAc(b1-2)Man(a1-3)[Neu5Ac(a2-3)Gal(b1-4)GlcNAc(b1-2)Man(a1-6)]Man(b1-4)GlcNAc(b1-4)GlcNAc
# In short: as §1
# [21] = target: Neu5Ac(a2-3)Gal(b1-4)GlcNAc(b1-2)Man(a1-3)[Neu5Ac(a2-3)Gal(b1-4)GlcNAc(b1-2)Man(a1-6)]Man(b1-4)GlcNAc(b1-4)[Fuc(a1-6)]GlcNAc
# In short: as §1
# [22] = target: Neu5Ac(a2-3)Gal(b1-4)GlcNAc(b1-2)Man(a1-3)[Neu5Ac(a2-6)Gal(b1-4)GlcNAc(b1-2)Man(a1-6)]Man(b1-4)GlcNAc(b1-4)GlcNAc
# In short: as §1
# [23] = target: Neu5Ac(a2-3)Gal(b1-4)GlcNAc(b1-2)[Neu5Ac(a2-3)Gal(b1-4)GlcNAc(b1-4)]Man(a1-3)[GlcNAc(b1-4)][Neu5Ac(a2-3)Gal(b1-4)GlcNAc(b1-2)[Neu5Ac(a2-3)Gal(b1-4)GlcNAc(b1-6)]Man(a1-6)]Man(b1-4)GlcNAc(b1-4)GlcNAc
# In short: as §1
# [24] = target: Neu5Ac(a2-3)Gal(b1-4)GlcNAc(b1-2)[Neu5Ac(a2-3)Gal(b1-4)GlcNAc(b1-4)]Man(a1-3)[GlcNAc(b1-4)][Neu5Ac(a2-3)Gal(b1-4)GlcNAc(b1-4)Man(a1-6)]Man(b1-4)GlcNAc(b1-4)GlcNAc
# In short: as §1
# [25] = target: Neu5Ac(a2-3)Gal(b1-4)GlcNAc(b1-2)[Neu5Ac(a2-3)Gal(b1-4)GlcNAc(b1-6)]Man(a1-6)[Neu5Ac(a2-3)Gal(b1-4)GlcNAc(b1-2)Man(a1-3)][GlcNAc(b1-4)]Man(b1-4)GlcNAc(b1-4)GlcNAc
# In short: as §1
# [26] = target: Neu5Ac(a2-3)Gal(b1-4)GlcNAc(b1-3)Gal
# In short: as §1
# [27] = target: Neu5Ac(a2-3)Gal(b1-4)GlcNAc(b1-3)Gal(b1-3)GlcNAc
# In short: as §1
# [28] = target: Neu5Ac(a2-3)Gal(b1-4)GlcNAc(b1-3)Gal(b1-4)GlcNAc
# In short: as §1
# [29] = target: Neu5Ac(a2-3)Gal(b1-4)GlcNAc(b1-3)Gal(b1-4)GlcNAc(b1-2)Man(a1-3)[Neu5Ac(a2-3)Gal(b1-4)GlcNAc(b1-3)Gal(b1-4)GlcNAc(b1-2)Man(a1-6)]Man(b1-4)GlcNAc(b1-4)GlcNAc
# In short: as §1
# [30] = target: Neu5Ac(a2-3)Gal(b1-4)GlcNAc(b1-3)Gal(b1-4)GlcNAc(b1-3)Gal(b1-4)GlcNAc
# In short: as §1
# [31] = target: Neu5Ac(a2-3)Gal(b1-4)GlcNAc(b1-3)Gal(b1-4)GlcNAc(b1-3)Gal(b1-4)GlcNAc(b1-2)Man(a1-3)[Neu5Ac(a2-3)Gal(b1-4)GlcNAc(b1-3)Gal(b1-4)GlcNAc(b1-3)Gal(b1-4)GlcNAc(b1-2)Man(a1-6)]GalNAc
# In short: as §1
# [32] = target: Neu5Ac(a2-3)Gal(b1-4)GlcNAc(b1-3)Gal(b1-4)GlcNAc(b1-3)GalNAc
# In short: as §1
# [33] = target: Neu5Ac(a2-3)Gal(b1-4)GlcNAc(b1-3)Gal(b1-4)GlcNAc(b1-3)[Neu5Ac(a2-3)Gal(b1-4)GlcNAc(b1-3)Gal(b1-4)GlcNAc(b1-6)]GalNAc
# In short: as §1
# [34] = target: Neu5Ac(a2-3)Gal(b1-4)GlcNAc(b1-3)Gal(b1-4)GlcNAc(b1-6)[Gal(b1-3)]GalNAc
# In short: as §1
# [35] = target: Neu5Ac(a2-3)Gal(b1-4)GlcNAc(b1-3)Gal(b1-4)[Fuc(a1-3)]GlcNAc
# In short: as §1
# [36] = target: Neu5Ac(a2-3)Gal(b1-4)GlcNAc(b1-3)GalNAc
# In short: as §1
# [37] = target: Neu5Ac(a2-3)Gal(b1-4)GlcNAc(b1-3)[Neu5Ac(a2-3)Gal(b1-4)GlcNAc(b1-6)]GalNAc
# In short: as §1
binder,measurement,setting,value
B1,glycan array binding signal (z-score),[1],-0.09
same,glycan array binding signal (z-score),[2],-0.045
same,glycan array binding signal (z-score),[3],-0.069
same,glycan array binding signal (z-score),[4],-0.026
same,glycan array binding signal (z-score),[5],-0.053
same,glycan array binding signal (z-score),[6],-0.062
same,glycan array binding signal (z-score),[7],-0.025
same,glycan array binding signal (z-score),[8],-0.053
same,glycan array binding signal (z-score),[9],-0.071
same,glycan array binding signal (z-score),[10],-0.076
same,glycan array binding signal (z-score),[11],-0.012
same,glycan array binding signal (z-score),[12],-0.105
same,glycan array binding signal (z-score),[13],-0.088
same,glycan array binding signal (z-score),[14],-0.022
same,glycan array binding signal (z-score),[15],-0.023
same,glycan array binding signal (z-score),[16],-0.039
same,glycan array binding signal (z-score),Neu5Ac(a2-3)Gal(b1-4)Glc,-0.069
same,glycan array binding signal (z-score),[17],-0.023
same,glycan array binding signal (z-score),[18],-0.076
same,glycan array binding signal (z-score),[19],-0.046
same,glycan array binding signal (z-score),[20],-0.077
same,glycan array binding signal (z-score),[21],-0.052
same,glycan array binding signal (z-score),[22],-0.048
same,glycan array binding signal (z-score),[23],-0.075
same,glycan array binding signal (z-score),[24],0.026
same,glycan array binding signal (z-score),[25],-0.022
same,glycan array binding signal (z-score),[26],-0.071
same,glycan array binding signal (z-score),[27],-0.077
same,glycan array binding signal (z-score),[28],-0.086
same,glycan array binding signal (z-score),[29],-0.061
same,glycan array binding signal (z-score),[30],-0.009
same,glycan array binding signal (z-score),[31],-0.024
same,glycan array binding signal (z-score),[32],-0.071
same,glycan array binding signal (z-score),[33],-0.021
same,glycan array binding signal (z-score),[34],-0.092
same,glycan array binding signal (z-score),[35],0.037
same,glycan array binding signal (z-score),[36],-0.082
same,glycan array binding signal (z-score),[37],-0.031

# Reference: the supplement of paper PMC8728848
